# Results as given in the supplement of paper PMC8728848.
# The other results are listed elsewhere or left out.
# B1: Clone730PsrP (Streptococcus pneumoniae) (protein)
# chain: MDHHHHHHHHHHASENLYFQGAMVVGSQTAAATEATAKKVEEDRKKPASDYVASVTNVNLQSYAKRRKRSVDSIEQLLASIKNAAVFSGNTIVNGAPAINASLNIAKSETKVYTGEGVDSVYRVPIYYKLKVTNDGSKLTFTYTVTYVNPKTNDLGNISSMRPGYSIYNSGTSTQTMLTLGSDLGKPSGVKNYITDKNGRQVLSYNTSTMTTQGSGYTWGNGAQMNGFFAKKGYGLTSSWTVPITGTDTSFTFTPYAARTDRIGINYFNGGGKVVESSTT
# Legend:
# Experiment in all cases: glycan array binding signal (z-score within array); higher = stronger binding
# Conditions in all cases: glycan notation: IUPAC condensed, linker removed
# [1] = target: Gal(a1-3)Gal(b1-4)GlcNAc(b1-2)Man
# Method in brief: (§1)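 Negative Z-scores can be read as non-binding. The Z-score is calculated within each array and then averaged across arrays of one protein sequence at different concentrations or buffers and across linkers. Arrays, 3228 in all, were curated from the Consortium for Functional Glycomics database and kept only where the protein sequence was available.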
# [2] = target: Gal(a1-3)Gal(b1-4)GlcNAc(b1-2)Man(a1-3)[Gal(a1-3)Gal(b1-4)GlcNAc(b1-2)Man(a1-6)]Man(b1-4)GlcNAc(b1-4)GlcNAc
# Method in brief: as §1
# [3] = target: Gal(a1-3)Gal(b1-4)GlcNAc(b1-3)GalNAc
# Method in brief: as §1
# [4] = target: Gal(a1-3)Gal(b1-4)GlcNAc(b1-6)GalNAc
# Method in brief: as §1
# [5] = target: Gal(a1-3)Gal(b1-4)[Fuc(a1-3)]GlcNAc
# Method in brief: as §1
# [6] = target: Gal(a1-3)Gal(b1-4)[Fuc(a1-3)]GlcNAc(b1-2)Man(a1-3)[Gal(a1-3)Gal(b1-4)[Fuc(a1-3)]GlcNAc(b1-2)Man(a1-6)]Man(b1-4)GlcNAc(b1-4)GlcNAc
# Method in brief: as §1
# Gal(a1-3)GalNAc = target: Gal(a1-3)GalNAc
# Method in brief: as §1
# [7] = target: Gal(a1-3)[Gal(a1-4)]Gal(b1-4)GlcNAc
# Method in brief: as §1
# [8] = target: Gal(a1-4)Gal(b1-3)GlcNAc(b1-2)Man(a1-3)[Gal(a1-4)Gal(b1-3)GlcNAc(b1-2)Man(a1-6)]Man(b1-4)GlcNAc(b1-4)GlcNAc
# Method in brief: as §1
# Gal(a1-4)Gal(b1-4)Glc = target: Gal(a1-4)Gal(b1-4)Glc
# Method in brief: as §1
# Gal(a1-4)Gal(b1-4)GlcNAc = target: Gal(a1-4)Gal(b1-4)GlcNAc
# Method in brief: as §1
# [9] = target: Gal(a1-4)Gal(b1-4)GlcNAc(b1-2)Man(a1-3)[Gal(a1-4)Gal(b1-4)GlcNAc(b1-2)Man(a1-6)]Man(b1-4)GlcNAc(b1-4)GlcNAc
# Method in brief: as §1
# [10] = target: Gal(a1-4)Gal(b1-4)GlcNAc(b1-3)Gal(b1-4)Glc
# Method in brief: as §1
# Gal(a1-4)GlcNAc = target: Gal(a1-4)GlcNAc
# Method in brief: as §1
# Gal(a1-6)Glc = target: Gal(a1-6)Glc
# Method in brief: as §1
# Gal(b1-2)Gal = target: Gal(b1-2)Gal
# Method in brief: as §1
# Gal(b1-3)Gal = target: Gal(b1-3)Gal
# Method in brief: as §1
# Gal(b1-3)Gal(b1-4)GlcNAc = target: Gal(b1-3)Gal(b1-4)GlcNAc
# Method in brief: as §1
# Gal(b1-3)GalNAc = target: Gal(b1-3)GalNAc
# Method in brief: as §1
# [11] = target: Gal(b1-3)GalNAc(a1-3)[Fuc(a1-2)]Gal(b1-4)Glc
# Method in brief: as §1
# [12] = target: Gal(b1-3)GalNAc(a1-3)[Fuc(a1-2)]Gal(b1-4)GlcNAc
# Method in brief: as §1
# Gal(b1-3)GalNAc(b1-3)Gal = target: Gal(b1-3)GalNAc(b1-3)Gal
# Method in brief: as §1
# [13] = target: Gal(b1-3)GalNAc(b1-3)Gal(a1-4)Gal(b1-4)Glc
# Method in brief: as §1
# [14] = target: Gal(b1-3)GalNAc(b1-4)Gal(b1-4)Glc
# Method in brief: as §1
# [15] = target: Gal(b1-3)GalNAc(b1-4)[Neu5Ac(a2-3)]Gal(b1-4)Glc
# Method in brief: as §1
# Gal(b1-3)GlcNAc = target: Gal(b1-3)GlcNAc
# Method in brief: as §1
# [16] = target: Gal(b1-3)GlcNAc(a1-3)Gal(b1-4)GlcNAc
# Method in brief: as §1
# [17] = target: Gal(b1-3)GlcNAc(a1-6)Gal(b1-4)GlcNAc
# Method in brief: as §1
# Gal(b1-3)GlcNAc(b1-2)Man = target: Gal(b1-3)GlcNAc(b1-2)Man
# Method in brief: as §1
# [18] = target: Gal(b1-3)GlcNAc(b1-2)Man(a1-3)[Gal(b1-3)GlcNAc(b1-2)Man(a1-6)]Man(b1-4)GlcNAc(b1-4)GlcNAc
# Method in brief: as §1
# [19] = target: Gal(b1-3)GlcNAc(b1-2)Man(a1-3)[Gal(b1-3)GlcNAc(b1-2)Man(a1-6)]Man(b1-4)GlcNAc(b1-4)[Fuc(a1-6)]GlcNAc
# Method in brief: as §1
# [20] = target: Gal(b1-3)GlcNAc(b1-2)Man(a1-3)[GlcNAc(b1-4)][Gal(b1-3)GlcNAc(b1-2)Man(a1-6)]Man(b1-4)GlcNAc(b1-4)GlcNAc
# Method in brief: as §1
# [21] = target: Gal(b1-3)GlcNAc(b1-2)[Gal(b1-3)GlcNAc(b1-6)]Man(a1-6)[Gal(b1-3)GlcNAc(b1-2)Man(a1-3)]Man(b1-4)GlcNAc(b1-4)GlcNAc
# Method in brief: as §1
# [22] = target: Gal(b1-3)GlcNAc(b1-3)Gal(b1-3)GlcNAc
# Method in brief: as §1
# [23] = target: Gal(b1-3)GlcNAc(b1-3)Gal(b1-4)Glc
# Method in brief: as §1
# [24] = target: Gal(b1-3)GlcNAc(b1-3)Gal(b1-4)GlcNAc
# Method in brief: as §1
# [25] = target: Gal(b1-3)GlcNAc(b1-3)Gal(b1-4)GlcNAc(b1-2)Man(a1-3)[Gal(b1-3)GlcNAc(b1-3)Gal(b1-4)GlcNAc(b1-2)Man(a1-6)]Man(b1-4)GlcNAc(b1-4)GlcNAc
# Method in brief: as §1
binder,measurement,setting,value
B1,glycan array binding signal (z-score),[1],-0.011
same,glycan array binding signal (z-score),[2],-0.431
same,glycan array binding signal (z-score),[3],-0.281
same,glycan array binding signal (z-score),[4],-0.459
same,glycan array binding signal (z-score),[5],-0.455
same,glycan array binding signal (z-score),[6],1.64
same,glycan array binding signal (z-score),Gal(a1-3)GalNAc,0.033
same,glycan array binding signal (z-score),[7],0.222
same,glycan array binding signal (z-score),[8],-0.418
same,glycan array binding signal (z-score),Gal(a1-4)Gal(b1-4)Glc,1.27
same,glycan array binding signal (z-score),Gal(a1-4)Gal(b1-4)GlcNAc,1.2
same,glycan array binding signal (z-score),[9],0.234
same,glycan array binding signal (z-score),[10],-0.505
same,glycan array binding signal (z-score),Gal(a1-4)GlcNAc,-0.223
same,glycan array binding signal (z-score),Gal(a1-6)Glc,-0.456
same,glycan array binding signal (z-score),Gal(b1-2)Gal,0.055
same,glycan array binding signal (z-score),Gal(b1-3)Gal,-0.487
same,glycan array binding signal (z-score),Gal(b1-3)Gal(b1-4)GlcNAc,-0.231
same,glycan array binding signal (z-score),Gal(b1-3)GalNAc,-0.338
same,glycan array binding signal (z-score),[11],0.256
same,glycan array binding signal (z-score),[12],-0.265
same,glycan array binding signal (z-score),Gal(b1-3)GalNAc(b1-3)Gal,1.01
same,glycan array binding signal (z-score),[13],0.583
same,glycan array binding signal (z-score),[14],0.504
same,glycan array binding signal (z-score),[15],2.82
same,glycan array binding signal (z-score),Gal(b1-3)GlcNAc,0.33
same,glycan array binding signal (z-score),[16],-0.595
same,glycan array binding signal (z-score),[17],0.116
same,glycan array binding signal (z-score),Gal(b1-3)GlcNAc(b1-2)Man,0.272
same,glycan array binding signal (z-score),[18],-0.23
same,glycan array binding signal (z-score),[19],-0.285
same,glycan array binding signal (z-score),[20],-0.155
same,glycan array binding signal (z-score),[21],19.3
same,glycan array binding signal (z-score),[22],0.161
same,glycan array binding signal (z-score),[23],-0.155
same,glycan array binding signal (z-score),[24],-0.437
same,glycan array binding signal (z-score),[25],-0.281
